According to the BET-seq Pho4 binding data (Le et al. 2018):
The list shows a part of the results. The energies were worked out here from pooled read counts, against the library average; single values are noisy.

Target: T1, Pho4 (S. cerevisiae) (UniProt P07270)
T1 sequence: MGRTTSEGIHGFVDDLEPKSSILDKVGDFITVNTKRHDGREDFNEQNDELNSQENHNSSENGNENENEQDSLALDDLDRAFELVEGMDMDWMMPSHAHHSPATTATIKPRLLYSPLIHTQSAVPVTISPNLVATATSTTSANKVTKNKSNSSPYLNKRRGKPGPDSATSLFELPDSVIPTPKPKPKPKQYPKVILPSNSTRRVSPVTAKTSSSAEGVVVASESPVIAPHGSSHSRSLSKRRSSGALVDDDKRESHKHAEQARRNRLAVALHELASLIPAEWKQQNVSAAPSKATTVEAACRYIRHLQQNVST
Assay: relative binding free energy (BET-seq); higher = weaker binding
Conditions: reference: library average

Relative binding free energy, 0.25 kcal/mol:
TGATTCACGTGTCAGT
TGATTCACGTGCTGAG
GGCGTCACGTGTTGGA

Relative binding free energy, 0.46 kcal/mol:
TAAGTCACGTGAAGGA

Relative binding free energy, -0.14 kcal/mol:
TGGGCCACGTGGGGTA
ATGTGCACGTGGTTCA
CGTAGCACGTGCGGGG

Relative binding free energy, -0.16 kcal/mol:
CTAGGCACGTGGTGAT
TTAAGCACGTGGAGTG
TGAGGCACGTGCTGTA
AATAACACGTGGGAGG

Relative binding free energy, -0.24 kcal/mol:
GTAAGCACGTGGCGTG

Relative binding free energy, 0.31 kcal/mol:
ATATTCACGTGTGTCA
ACTTACACGTGAGGTG

Relative binding free energy, 0.05 kcal/mol:
TGGTACACGTGGTTGA
CGTTGCACGTGTTGAG
GTGAGCACGTGTAGTT

Relative binding free energy, 0.27 kcal/mol:
TTATTCACGTGTTATT
TCGGGCACGTGAGTTA

Relative binding free energy, 0.34 kcal/mol:
TATTTCACGTGTTTCC
GATTTCACGTGGACTT

Relative binding free energy, 0.18 kcal/mol:
TGTATCACGTGTGACT
CATTACACGTGTTGAT
GATGTCACGTGATAGT
AGATTCACGTGCGGAG
GAGTTCACGTGTTGCT

Relative binding free energy, 0.04 kcal/mol:
TGGAACACGTGTTCTT
TTGAGCACGTGGAAGT
ATGGGCACGTGATTGC
TAGGTCACGTGTCGTA
TTGTCCACGTGTTGAA

Relative binding free energy, 0.3 kcal/mol:
GGTCTCACGTGATAGG
GGGCTCACGTGTGGTG
GGTATCACGTGAGCGG

Relative binding free energy, 0.13 kcal/mol:
TAAGTCACGTGGATAT
TCGATCACGTGGTTGG
TACTTCACGTGGGTAG
GGAGTCACGTGTGCAT
AAAGTCACGTGGGGAA
AGGTCCACGTGGATGG

Relative binding free energy, 0.19 kcal/mol:
CTTTGCACGTGTTGAC
TTGATCACGTGTGAGT
GGTCTCACGTGAGGTA
GGAGTCACGTGGAGAG

Relative binding free energy, 0.09 kcal/mol:
AGGGTCACGTGCGGTG
GGGGACACGTGCGGTA
CCGGGCACGTGATGTT

Relative binding free energy, -0.09 kcal/mol:
AAGGCCACGTGCGGTT
CATACCACGTGGGGGT
TGGGTCACGTGCGCAG
GGCGTCACGTGGGGAC

Relative binding free energy, -0.22 kcal/mol:
TGTAGCACGTGGGAGT
GGCGCCACGTGGGGGC
AAGACCACGTGGGTGG

Relative binding free energy, -0.05 kcal/mol:
TTGAGCACGTGGACGT
AGTCGCACGTGTAAGG
AATAGCACGTGGGCGC
GCAAGCACGTGTAGGT
TTAGTCACGTGGGTTA
TGTAACACGTGGGGAA

Relative binding free energy, 0.16 kcal/mol:
TGCATCACGTGTGTTT

Relative binding free energy, 0.07 kcal/mol:
ATGATCACGTGCGAGG
AATGTCACGTGTTTAA
TAGGTCACGTGTATGC

Relative binding free energy, -0.1 kcal/mol:
TGAGGCACGTGATGAG
TGCTCCACGTGGGCGG
CTGTCCACGTGGGGGT

Relative binding free energy, 0.24 kcal/mol:
GTTGTCACGTGGAGTC
AATTGCACGTGAGAGT
TTGGTCACGTGTGGAT

Relative binding free energy, -0.06 kcal/mol:
CCTAGCACGTGTGGTG
TAGTACACGTGTTGAA
TGAGGCACGTGTCTTG
AGTAGCACGTGGATGG
TGGCGCACGTGTCAGG

Relative binding free energy, 0 kcal/mol:
TTGCGCACGTGTTACG
GGGTACACGTGGTTCT
TTTCACACGTGGTTTA
TTACTCACGTGTGGAG
TCGTTCACGTGCGTTG
AAAGACACGTGGTCGG
GTAGTCACGTGGCTGT
ATTATCACGTGTTGAA
TTGAACACGTGTCAGG
CGTGTCACGTGGTGTA

Relative binding free energy, 0.26 kcal/mol:
TTGGTCACGTGAGCAT
TGGTGCACGTGAGTTA
GTGGTCACGTGTAACG
GTGTTCACGTGTCATT

Relative binding free energy, 0.12 kcal/mol:
TGGCGCACGTGACGTT
TTGATCACGTGTTGTG
GGGCACACGTGTTTAT
TCGAACACGTGGAGTG

Relative binding free energy, -0.25 kcal/mol:
TGCGGCACGTGGGTGT

Relative binding free energy, -0.08 kcal/mol:
AGTGGCACGTGCAATG
AAGGGCACGTGGCCTT
TCTAGCACGTGGTTGT
TGACGCACGTGTTGAT
GGGGGCACGTGGTACC

Relative binding free energy, 0.01 kcal/mol:
TGGGTCACGTGGCCTT
CTATGCACGTGTTTGT
CTTTACACGTGGTAAT

Relative binding free energy, -0.13 kcal/mol:
GCAGCCACGTGGGGTT
TCGGACACGTGGGGGT
TATACCACGTGGGTTG
AATGGCACGTGGGGGC
TGGGCCACGTGTCGTG
TTTTGCACGTGGCCGT

Relative binding free energy, -0.32 kcal/mol:
TATAGCACGTGGGGAA
GGGGGCACGTGCTGTA
CTAAGCACGTGGGTTG

Relative binding free energy, 0.06 kcal/mol:
TGTCGCACGTGTAAGA
TTATACACGTGGAGGG
GATTCCACGTGTTTGG
GAAAACACGTGGGATG
GGAATCACGTGGGATT
ACGGACACGTGTGGGT
AGTGTCACGTGGTTTT
AGATGCACGTGTAAGT
AGTTACACGTGGAAGG
GGACGCACGTGGTTAA

Relative binding free energy, 0.33 kcal/mol:
TGGTCCACGTGAGGAT
GGGCTCACGTGTGGAA
ATATTCACGTGGAGAT

Relative binding free energy, 0.35 kcal/mol:
CGAGTCACGTGATTTG
AAAGTCACGTGATGGC
GAGTTCACGTGTAGGG

Relative binding free energy, 0.2 kcal/mol:
TGCTTCACGTGGTTTT

Relative binding free energy, -0.17 kcal/mol:
CGGAGCACGTGGGGTT

Relative binding free energy, 0.14 kcal/mol:
AGGCTCACGTGGTGTT
TATTGCACGTGTAATA
TTTCTCACGTGTAGTA
TAACACACGTGTTTTT
GACGTCACGTGTGTGT
TATTCCACGTGTAGTG

Relative binding free energy, 0.22 kcal/mol:
GATCTCACGTGGGGAG
GAGTACACGTGAGTGC
AGAGGCACGTGAGGGA
TAGTGCACGTGAGTCT

Relative binding free energy, 0.11 kcal/mol:
TGTTTCACGTGCTGCG
AATTTCACGTGGTGAA
AGGCACACGTGTGTGT

Relative binding free energy, -0.07 kcal/mol:
GAGGACACGTGGCGGT
ACGGTCACGTGGGAGG
ATGAACACGTGGGGGT
GGTCGCACGTGTTGAG
TTGTACACGTGGTACA
AATGGCACGTGTCTGG

Relative binding free energy, 0.39 kcal/mol:
GGTATCACGTGTCGGA
GGACTCACGTGTGATG

Relative binding free energy, 0.4 kcal/mol:
TGGTTCACGTGTGTAG

Relative binding free energy, 0.37 kcal/mol:
AGGATCACGTGAATGG

Relative binding free energy, 0.38 kcal/mol:
GTATTCACGTGAGCTT
GGATACACGTGAGGAG
GGTTCCACGTGAGATT

Relative binding free energy, -0.19 kcal/mol:
TTGGGCACGTGCCGGA
AAGGGCACGTGTTCTT

Relative binding free energy, 0.43 kcal/mol:
GCTTTCACGTGAGGAT

Relative binding free energy, 0.03 kcal/mol:
TGTCTCACGTGGGTGA
CGTAGCACGTGTCTTT
CTTCGCACGTGGAGTG
TGGGACACGTGTTGGA
ATTAGCACGTGGACGT
AGAGGCACGTGTGAAT
TGAATCACGTGGCAGG
GGGATCACGTGCTGTG

Relative binding free energy, 0.21 kcal/mol:
AAGGACACGTGTAATT
GATATCACGTGCTGGG
GATCTCACGTGGTGGG

Relative binding free energy, -0.04 kcal/mol:
ATGTGCACGTGTGTAT
AGAAGCACGTGTAGGG
GTGGGCACGTGGTGGA
TATTGCACGTGGGATT
TTGAGCACGTGTAGAA

Relative binding free energy, -0.18 kcal/mol:
TGCGACACGTGGGTGC
CTAAGCACGTGTGGTT
TTAGGCACGTGGTAGA
GCTGCCACGTGCGGGG

Relative binding free energy, 0.17 kcal/mol:
GTGGTCACGTGCAGGT
CATGTCACGTGAGAGG
TGTGGCACGTGAAGGA

Relative binding free energy, -0.11 kcal/mol:
TGTGGCACGTGGAGAG
AGGCCCACGTGTAGGG
ATAGGCACGTGTATGG
TAGGCCACGTGTGGGT
CGCGACACGTGGGGGC

Relative binding free energy, 0.02 kcal/mol:
AGAGTCACGTGGGTTT

Relative binding free energy, 0.36 kcal/mol:
TGTCTCACGTGAAGTA

Relative binding free energy, -0.03 kcal/mol:
ATGCGCACGTGGATGA
AAGTGCACGTGTGTTG
AGTGACACGTGTTATA
GGGAACACGTGGGGTC
AGTCGCACGTGATAGG
GAGCGCACGTGTGTGG

Relative binding free energy, 0.08 kcal/mol:
TTGTTCACGTGCTGAT
GGGTGCACGTGTTAAG
TTGTGCACGTGTAATC
CATTTCACGTGGGATG
GTTTGCACGTGTTGGT

Relative binding free energy, -0.26 kcal/mol:
TCCGGCACGTGGGTGG

Relative binding free energy, 0.29 kcal/mol:
AGTCTCACGTGGATTA

Relative binding free energy, -0.01 kcal/mol:
CGCGTCACGTGGGTCG
ATGGGCACGTGTTCTG
TTATACACGTGTGTTA

Relative binding free energy, 0.15 kcal/mol:
GTTTCCACGTGTGTCG
AAGTTCACGTGTGCTT
GTGTTCACGTGGAGAA
AATTGCACGTGTGATA
TTGGTCACGTGGAGGT
TTTGTCACGTGTGTGA
TGATACACGTGTGAAG

Relative binding free energy, -0.15 kcal/mol:
AAGGCCACGTGGGTAG
TTACGCACGTGGGTTG

Relative binding free energy, -0.02 kcal/mol:
AGATGCACGTGTTTGC
TAAAACACGTGGGGTT
TTGGCCACGTGGCGGC
CAAGGCACGTGGAGTA
ATGTCCACGTGTTGGG

Relative binding free energy, 0.28 kcal/mol:
AATGTCACGTGTTACA
GACTTCACGTGGGTAG
GGTTTCACGTGTGAAA

Relative binding free energy, -0.29 kcal/mol:
TGATGCACGTGGGGCA

Relative binding free energy, -0.21 kcal/mol:
AAATGCACGTGTAGTG
TGGAGCACGTGGCGAT

Relative binding free energy, 0.1 kcal/mol:
TTCGACACGTGGTTTA
TTGTGCACGTGTCGAT
CTATTCACGTGGTGAT
CTGTTCACGTGGGCGG
GCCGGCACGTGTGGGA
AGTCGCACGTGTGGTT
